# Test results from PubChem BioAssay AID485281 (National Center for Advancing Translational Sciences (NCATS), 2010).
# Among all 350,000 compounds or so, about 260 (0.074%) were called active. The shares of active, inactive and inconclusive entries below differ from those in the screen. Calls come from the whole dose curve; as a rule, active = well fitted inhibition curve with a large enough effect; inconclusive = small, poorly fitted or top-dose-only effect; inactive = no such curve, though single readings can be large or run the other way. A potency beside an inconclusive call is a rough fit, not a confirmed value.
# Molecular target: Ferritin light chain (Equus caballus) (UniProt P02791)
# UniProt P02791, sequence (P02791 whole entry, looked up): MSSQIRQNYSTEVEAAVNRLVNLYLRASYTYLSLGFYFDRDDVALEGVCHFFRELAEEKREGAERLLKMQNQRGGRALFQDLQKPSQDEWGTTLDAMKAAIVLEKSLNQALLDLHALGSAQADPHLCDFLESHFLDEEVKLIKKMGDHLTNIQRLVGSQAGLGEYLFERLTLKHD
# Assay: qHTS Assay for Identification of Novel General Anesthetics; note: nearly all actives have a fitted effect of over 20% in size
# Settings: apoferritin/1-aminoanthracene competitive binding, fluorescence; series mostly up to 77.5 µM
# Method in brief: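 In PBS, apoferritin at 10 uM is loaded with 1-AMA from a 50% saturated solution. After 10 min of compound exposure at ambient temperature, reduced 535 nm fluorescence indicates probe displacement.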
# Potency is the fitted concentration of half-maximal effect; tags give direction and shape of the fitted curve.
row,SMILES,Potency
1,Cc1cccc(-n2c(C)cc(/C=N/n3cnnc3)c2C)c1,"inconclusive: 35.5 µM [inhibitor, single point]"
2,Cc1ccc2c(c1)N(CC(=O)Nc1ccccc1C(F)(F)F)C(=O)c1cccnc1O2,"inconclusive: 5.01 µM [inhibitor, full curve]"
3,COC(=O)c1ccccc1NC(=O)C(C)n1nc(C)c2c(C)n(-c3ccccc3)nc2c1=O (stereo unspecified),"inconclusive: 11.2 µM [inhibitor, partial curve]"
4,CCN1CCCC1CNC(=O)c1ccc(Sc2ccccc2Cl)c([N+](=O)[O-])c1 (stereo unspecified),"inconclusive: 31.6 µM [inhibitor, partial curve]"
5,O=C(CCc1ccc(CCC(=O)c2cccs2)s1)c1cccs1,"inconclusive: 50.1 µM [inhibitor, single point]"
6,CC(=O)c1sc(Nc2nc3cc4c(cc3s2)OCO4)nc1C,inactive
7,Cc1cccc(NC(=S)NN(Cc2ccccc2)c2ccccc2)c1C,"inconclusive: 6.31 µM [inhibitor, full curve, poor fit]"
8,O=C(O)c1nn(CCOc2cccc(Cl)c2)c(=O)c2ccccc12,"inconclusive: 39.8 µM [inhibitor, partial curve]"
9,CCC(C)C(=O)Nc1nnc(-c2cccs2)s1 (stereo unspecified),inactive
10,CCN1CCN(Cc2ccc(NC(=O)Nc3ccccc3Cl)cc2)CC1,inactive
11,CN(C)c1nc(-c2ccc([N+](=O)[O-])cc2)cs1,"inconclusive: 31.6 µM [inhibitor, partial curve]"
12,CCCc1[nH]nc2c1C(CCc1ccccc1)C(C#N)=C(N)O2 (stereo unspecified),"inconclusive: 35.5 µM [inhibitor, partial curve]"
13,COc1cccc(/C=C2/Sc3ccc(C(=O)NCCN4CCCCCC4)cc3NC2=O)c1,inactive
14,COc1cccc(/C=N/Nc2ncnc3scc(-c4ccccc4)c23)c1OC,"inconclusive: 14.1 µM [inhibitor, partial curve]"
15,Cc1ccccc1-n1nnnc1SCC(C)C,"inconclusive: 25.1 µM [inhibitor, partial curve]"
16,O=C(COC(=O)CCC(=O)c1ccc(F)cc1)Nc1cccc(S(=O)(=O)N2CCCC2)c1,"inconclusive: 50.1 µM [inhibitor, single point]"
17,COc1ccc(N2CCN(S(=O)(=O)c3ccc4c(c3)NC(=O)C(C)C(=O)N4)CC2)cc1 (stereo unspecified),"inconclusive: 25.1 µM [inhibitor, partial curve]"
18,O=C(CCc1ccccc1)c1ccc2c(c1)OCCCO2,"inconclusive: 39.8 µM [inhibitor, partial curve]"
19,Cc1ccc(OCC(=O)N/N=C2\CCOc3c(C)cccc32)cc1,"inconclusive: 11.2 µM [inhibitor, partial curve]"
20,O=C(CSc1nnc(-c2ccccn2)n1Cc1ccco1)c1ccc(-c2ccccc2)cc1,"inconclusive: 17.8 µM [inhibitor, partial curve]"
21,COc1ccc2c(c1)O[C@@H](c1cccc(C(F)(F)F)c1)[C@H](O)C2=O,"inconclusive: 50.1 µM [inhibitor, single point]"
22,COc1ccc(C(=O)CC(=O)c2ccc(C(C)(C)C)cc2)cc1,inactive

row,SMILES,Potency
1,Cc1ccc(C2CC(=O)n3nc(-c4ccc(Cl)cc4)nc3S2)cc1 (stereo unspecified),"inconclusive: 22.4 µM [inhibitor, partial curve]"
2,CC1CCCC(NC(=O)CSc2nnnn2C)C1C (stereo unspecified),"inconclusive: 35.5 µM [inhibitor, partial curve]"
3,Cc1ccsc1/C=N/NC(=O)c1ccc(-n2cccc2)cc1,inactive
4,C/C(=N\NC(=O)CSc1nc2ccccc2s1)c1cccnc1,"inconclusive: 28.2 µM [inhibitor, single point]"
5,Cc1ccc(-n2c(Cc3cccs3)nnc2SCC(=O)OC(C)C)cc1,"inconclusive: 4.47 µM [inhibitor, full curve, poor fit]"
6,O=C1C(N2CCOCC2)=C(n2nnc3ccccc32)C(=O)c2ccccc21,inactive
7,COc1cc(OC)cc(-c2nnc(SCc3cccnc3)o2)c1,inactive
8,Cc1nn(Cc2ccc(Cl)cc2Cl)c(C)c1NC(=O)c1nn(C)cc1Cl,"inconclusive: 35.5 µM [inhibitor, single point]"
9,CCOC(=O)N1CC=C2C(C#N)=C(N)C(C#N)(C#N)[C@H](c3ccc(OC(C)C)c(OCC)c3)[C@H]2C1,"inconclusive: 39.8 µM [inhibitor, partial curve]"
10,S=C(NCc1ccco1)Nc1ccc(Cl)c(Cl)c1,"inconclusive: 28.2 µM [inhibitor, partial curve]"
11,COc1cc(OC)cc(C(=O)NC(=S)NCCc2ccccc2)c1,"inconclusive: 31.6 µM [inhibitor, partial curve]"
12,CC1OC(Nc2ccc(OC(F)(F)F)cc2)C(O)C(O)C1O (stereo unspecified),inactive
13,O=[N+]([O-])c1ccc(Nc2cccc(F)c2)nc1,"inconclusive: 35.5 µM [inhibitor, partial curve]"
14,CCOC(=O)c1cccc(N2C(=O)c3ccccc3S2(=O)=O)c1,"inconclusive: 31.6 µM [inhibitor, single point]"
15,O=C(Nc1nc(-c2cccs2)cs1)c1ccc(S(=O)(=O)N2CCCC2)cc1,"inconclusive: 5.62 µM [inhibitor, full curve, poor fit]"
16,O=C(CSc1nc2ccccc2s1)N1c2ccccc2Sc2ccc(Cl)cc21,inactive
17,Cc1sc2ncnc(NCC3COc4ccccc4O3)c2c1C (stereo unspecified),inactive
18,O=C(c1ccc2ccccc2n1)N1CCN(c2ccccc2O)CC1,"inconclusive: 39.8 µM [inhibitor, partial curve]"
19,CCc1ccc(NC(=O)CSc2nc3nc(C)cc(C)n3n2)cc1,"inconclusive: 44.7 µM [inhibitor, single point]"
20,Cc1ccc(N2C(=O)CC(C)(C)CC2=O)cc1Cl,"inconclusive: 15.8 µM [inhibitor, partial curve]"
21,COc1ccc(CCNC(=O)c2cnn(-c3ccc(F)cc3)c2C2CCN(C(=O)OC(C)(C)C)CC2)cc1OC,inactive
22,O=C(CN1C(=O)C2(SCC(=O)N2c2ccc(F)c(F)c2)c2ccccc21)NCCc1ccccc1 (stereo unspecified),"inconclusive: 5.62 µM [inhibitor, full curve, poor fit]"

row,SMILES,Potency
1,COc1cc(OC)c2c(c1C(CCN1CCCC(C)C1)c1ccc(N(C)C)cc1)OC(=O)CC2c1ccc(N(C)C)cc1 (stereo unspecified),inactive
2,Clc1ccc(Cc2nnc(-c3ccccc3Br)o2)cc1,inactive
3,COc1ccc(-c2noc(C(=O)NCc3ccccc3Cl)n2)cc1OC,"inconclusive: 20 µM [inhibitor, partial curve]"
4,CC(=O)c1cccc(OCc2cc(C(=O)N(C)Cc3ccc(C)o3)no2)c1,"inconclusive: 25.1 µM [inhibitor, partial curve]"
5,O=C(CSc1nnc(CNC(=O)c2ccccc2)o1)c1ccc(Cl)cc1,"inconclusive: 28.2 µM [inhibitor, partial curve]"
6,NS(=O)(=O)c1ccc(N=Nc2c(=O)[nH]n3c(=O)c4c([nH]c23)CCCC4)cc1,"inconclusive: 35.5 µM [inhibitor, partial curve]"
7,CCOC(=O)c1ccc(NC(=O)C2CCC(CNc3c(N4CCOCC4)c(=O)c3=O)CC2)cc1 (stereo unspecified),"inconclusive: 56.2 µM [inhibitor, single point]"
8,COc1cc(F)ccc1S(=O)(=O)N1CCN(C23CC4CC(CC(C4)C2)C3)CC1,"inconclusive: 28.2 µM [inhibitor, single point]"
9,C/C(=N\NC(=O)COc1ccc(C(C)(C)C)cc1)c1ccc(OC(F)F)cc1,"inconclusive: 20 µM [inhibitor, partial curve, poor fit]"
10,COc1cc(CC(=O)OCC(=O)c2ccc3c(c2)OCCO3)cc(OC)c1OC,"inconclusive: 35.5 µM [inhibitor, single point]"
11,CCn1cc([N+](=O)[O-])c(C(=O)N2N=C(c3ccc(Cl)c(Cl)c3)CC2c2ccccc2O)n1 (stereo unspecified),"inconclusive: 7.94 µM [inhibitor, partial curve]"
12,Cc1ccc(-n2c(O)c(C=Nc3ccccc3-c3n[nH]c(=S)[nH]c3=O)c3ccccc3c2=O)cc1C,"inconclusive: 10 µM [inhibitor, partial curve]"
13,CC(NS(=O)(=O)c1ccc2c(c1)oc(=O)n2C)c1ccccc1 (stereo unspecified),"inconclusive: 28.2 µM [inhibitor, partial curve]"
14,Oc1cc2c(cc1CN1CCc3ccccc3C1)OCO2,"inconclusive: 25.1 µM [inhibitor, single point]"
15,O=C(Cc1ccccc1)Nc1ccccc1N1CCCC1,"inconclusive: 25.1 µM [inhibitor, partial curve]"
16,CC(C)Cc1nc2ccc(N)cc2[nH]1,inactive
17,Brc1ccccc1OCCOc1cccc2cccnc12,inactive
18,Cc1cc(Nc2ccccc2)nn1C(=O)c1ccc(Cl)cc1,"inconclusive: 39.8 µM [inhibitor, partial curve]"
19,COC(=O)C1=C(CS(=O)(=O)c2ccc(C)cc2C)NC(=O)NC1c1ccc(C)cc1 (stereo unspecified),"inconclusive: 10 µM [inhibitor, partial curve]"
20,O=C(Nc1cccc(C(=O)Nc2ccc(Cl)cn2)c1)c1ccccc1,"inconclusive: 22.4 µM [inhibitor, partial curve, poor fit]"
21,Cc1cc(C)c(S(=O)(=O)NCc2ccc3c(c2)CCN3C(=O)c2ccccc2)c(C)c1,"inconclusive: 50.1 µM [inhibitor, single point]"
22,COc1ccc(C(=O)NCC(=O)N/N=C/c2ccc([N+](=O)[O-])s2)cc1OC,"inconclusive: 31.6 µM [inhibitor, partial curve]"
